In publication PMC4336329 (PLoS ONE, 2015):
Out of some 310,000 compounds screened, about 2,200 (0.71%) showed an effect of 50% or more. The effect is printed as a negative number. This is one part of the list.

Target: human ether-à-go-go-related gene (hERG) potassium channel (human, UniProt Q12809)
Assay: primary screen, population patch clamp on CHO cells stably expressing hERG

Chain of human ether-à-go-go-related gene (hERG) potassium channel (Q12809 whole entry, looked up): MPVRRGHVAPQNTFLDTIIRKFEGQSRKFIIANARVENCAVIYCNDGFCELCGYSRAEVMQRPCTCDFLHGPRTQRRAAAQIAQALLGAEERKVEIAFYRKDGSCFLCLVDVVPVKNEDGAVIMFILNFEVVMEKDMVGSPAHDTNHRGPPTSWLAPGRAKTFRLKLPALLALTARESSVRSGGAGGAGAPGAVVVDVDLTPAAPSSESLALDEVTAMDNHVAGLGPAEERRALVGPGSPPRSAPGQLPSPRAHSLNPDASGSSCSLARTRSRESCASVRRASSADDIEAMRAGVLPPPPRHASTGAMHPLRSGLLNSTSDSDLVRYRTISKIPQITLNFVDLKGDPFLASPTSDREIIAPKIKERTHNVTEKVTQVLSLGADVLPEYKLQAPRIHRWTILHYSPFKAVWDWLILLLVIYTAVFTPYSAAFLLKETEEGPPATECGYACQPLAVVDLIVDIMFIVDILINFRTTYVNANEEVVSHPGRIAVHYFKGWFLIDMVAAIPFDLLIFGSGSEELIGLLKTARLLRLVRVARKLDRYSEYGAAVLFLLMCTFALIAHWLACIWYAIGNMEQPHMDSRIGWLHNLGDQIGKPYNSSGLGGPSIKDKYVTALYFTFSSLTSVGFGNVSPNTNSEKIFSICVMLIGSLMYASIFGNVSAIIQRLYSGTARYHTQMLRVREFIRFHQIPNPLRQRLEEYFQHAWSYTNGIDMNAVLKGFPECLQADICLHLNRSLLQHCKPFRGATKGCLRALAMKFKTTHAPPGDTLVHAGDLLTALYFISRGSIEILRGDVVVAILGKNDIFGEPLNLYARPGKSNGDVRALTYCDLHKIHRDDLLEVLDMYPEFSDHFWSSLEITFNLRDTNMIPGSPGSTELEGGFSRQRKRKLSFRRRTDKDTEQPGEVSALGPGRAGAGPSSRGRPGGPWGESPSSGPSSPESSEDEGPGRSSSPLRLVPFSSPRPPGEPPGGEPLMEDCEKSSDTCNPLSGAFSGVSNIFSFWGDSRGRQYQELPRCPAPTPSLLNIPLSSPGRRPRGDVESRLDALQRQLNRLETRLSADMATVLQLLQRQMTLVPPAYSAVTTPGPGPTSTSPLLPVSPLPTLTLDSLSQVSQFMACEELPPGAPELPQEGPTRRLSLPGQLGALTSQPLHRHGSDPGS

First: COc1ccc(C(c2nnnn2C2CCCCC2)N2CCN(C)CC2)c(OC)c1 (stereo not drawn)
Second: COc1cc(OCC(=O)NC(C)C)cc2c1C(=O)O[C@@H](C)CCCC(=O)CCCCC2
The “hERG current change (%, negative = inhibition) at 1uM” value of the first is lower: 0.861% for the first, 13.7% for the second.

First: C=CCn1c(SCC(=O)N(C)C)nc2sc3c(c2c1=O)CCC3
Second: CCn1c(SCC(=O)OC)nc2sc3c(c2c1=O)CC(C)(C)OC3
The “hERG current change (%, negative = inhibition) at 1uM” value of the first is higher: 7.26% for the first, 6.58% for the second.

Going from `COc1ccc(C(=O)NC(=S)NNC(=O)CCc2ccccc2)cc1` to `COc1ccc(C(=O)NCC(C)NC(=O)c2ccc(OC)cc2)cc1` (stereo not drawn), the “hERG current change (%, negative = inhibition) at 1uM” value falls from 18.5% to 7.94%.

Compared with `CCOc1ccc(S(=O)(=O)N/N=C(\C)C2CCCCC2)cc1`, `CCOc1ccc(CC2CCC(=O)NC2=O)cc1` (stereo not drawn) is lower in “hERG current change (%, negative = inhibition) at 1uM” value: 5.35% for the first, -6.71% for the second.

Going from `CCCCCCCCCCn1cc(C(C)=O)c(=O)[nH]c1=O` to `CCCCNC(=O)c1cc2c(=O)n3cccc(C)c3nc2s1`, the “hERG current change (%, negative = inhibition) at 1uM” value rises from 6.85% to 12.1%.

Compared with `CC(=O)NC1(c2ccccc2)CCN(c2nc(C)cc(C)n2)CC1`, `Cc1cc(=O)n2nc(N3CCC(C(=O)NCCc4ccccc4)CC3)sc2n1` is lower in “hERG current change (%, negative = inhibition) at 1uM” value: 12.1% for the first, 7.6% for the second.

Going from `Clc1ccc(N2CCN(/N=C/c3ccncc3)CC2)cc1` to `O=C(O)C1CC=CCC1C(=O)Nc1ccc(N2CCN(Cc3ccccc3)CC2)cc1` (stereo not drawn), the “hERG current change (%, negative = inhibition) at 1uM” value rises from 9.28% to 17.8%.

First: C=CCn1c(CNc2ccc(C)cc2)nnc1SCC(=O)N/N=C/c1ccc(O)cc1O
Second: COc1ccc(NC(=O)CSc2nnc(Cc3cccn3C)n2CCc2ccccc2)cc1OC
The “hERG current change (%, negative = inhibition) at 1uM” value of the first is lower: -2.46% for the first, 6.95% for the second.

Compared with `COC(=O)c1ccccc1NC(=O)CSc1n[nH]c(-c2cccnc2)n1`, `CS(=O)(=O)N(CC(=O)Nc1ccccc1C(=O)N1CCOCC1)c1cccc([N+](=O)[O-])c1` is lower in “hERG current change (%, negative = inhibition) at 1uM” value: 10.7% for the first, 7.66% for the second.

First: COc1ccc(Nc2cc(C(=O)N3CCc4ccccc4C3)c3ccccc3n2)c(OC)c1
Second: COc1cccc(/C=C(/C#N)c2nc3ccccc3[nH]2)c1OC(C)C(=O)O (stereo not drawn)
The “hERG current change (%, negative = inhibition) at 1uM” value of the first is lower: 10.8% for the first, 12% for the second.

First: O=C(N/N=C/c1cc(Br)c(Br)o1)c1ccc2c(c1)OCCO2
Second: C=CCN(c1ccccc1)S(=O)(=O)c1cc(C(=O)NC2=NCCS2)ccc1Cl
The “hERG current change (%, negative = inhibition) at 1uM” value of the first is lower: 13.2% for the first, 24.3% for the second.

Going from `Cc1[nH]n(C(N)=S)c(=O)c1N=Nc1cccc(C(F)(F)F)c1` to `CCOC(=O)c1n[nH]n2c1nc(=S)c1ccccc12`, the “hERG current change (%, negative = inhibition) at 1uM” value falls from 10.3% to 7.67%.

Going from `CC1CCC(C(C)C)C(OP(N)(=O)c2ccccc2)C1` (stereo not drawn) to `CC1CCC(C(C)C)C(OCC(O)CNC(C)c2ccccc2)C1.Cl` (stereo not drawn), the “hERG current change (%, negative = inhibition) at 1uM” value rises from 1.84% to 10.7%.

Going from `O=C(NNC1CC(c2ccccc2)=NN1C(=O)c1ccccc1)c1ccccc1` (stereo not drawn) to `CN(C)c1ccc(-c2nc3ccccc3c(=O)[nH]2)cc1`, the “hERG current change (%, negative = inhibition) at 1uM” value falls from 5.4% to 4.81%.

First: CC(C)CCNC(=O)c1ccc(CSCc2cccc(F)c2)o1
Second: O=C(CC1C(=O)NCCN1Cc1ccc(F)cc1)NCCOc1cccnc1 (stereo not drawn)
The “hERG current change (%, negative = inhibition) at 1uM” value of the first is lower: -5.66% for the first, 5.15% for the second.

First: CC(C)(C)c1ccc(OCCCC(=O)N2CCOCC2)cc1
Second: NS(=O)(=O)c1ccc(CNC(=O)/C=C/c2ccc(S(=O)(=O)N3CCOCC3)cc2)cc1
The “hERG current change (%, negative = inhibition) at 1uM” value of the first is lower: -2.13% for the first, 14.7% for the second.

Going from `O=C(CC12CC3CC(CC(C3)C1)C2)NCC(=O)OCc1cc(=O)oc2ccc3ccccc3c12` to `Cc1ccnc(N(C(=O)c2cccs2)C(=O)c2cccs2)c1`, the “hERG current change (%, negative = inhibition) at 1uM” value falls from 15.4% to 14%.

First: COc1ccccc1N(CC(=O)NC(C)(C)C)C(=O)Cn1nnc(-c2ccc(C)o2)n1
Second: COc1cc(NS(=O)(=O)c2ccc(NC(=O)CCC(=O)O)cc2)nc(OC)n1
The “hERG current change (%, negative = inhibition) at 1uM” value of the first is lower: 2.5% for the first, 5.38% for the second.

Going from `O=C(C1CC1)N1CCN(c2ccc([N+](=O)[O-])cc2-n2cccc2)CC1` to `Cc1ccccc1N1CCN(CC(=O)Nc2nccs2)CC1`, the “hERG current change (%, negative = inhibition) at 1uM” value rises from 8.87% to 13.2%.

Going from `Cc1ccc(-c2nc(SCC(=O)N(C)C3CCS(=O)(=O)C3)[nH]c2-c2ccc(C)cc2)cc1` (stereo not drawn) to `Cc1cc(NS(=O)(=O)c2ccc(NC(=O)CSc3nc4ncc(Cl)cc4[nH]3)cc2)nc(C)n1`, the “hERG current change (%, negative = inhibition) at 1uM” value rises from -7.85% to 9.5%.

Going from `CN(Cc1ccc(Cl)cc1Cl)C(=O)CN1C(=O)NC2(CCCC2)C1=O` to `O=C(O)CC(SCC(=O)Nc1ccc(Cl)c(S(=O)(=O)N2CCOCC2)c1)C(=O)O` (stereo not drawn), the “hERG current change (%, negative = inhibition) at 1uM” value rises from -16.9% to 1.04%.

First: COc1ccc(NC(=S)NC2CCS(=O)(=O)C2)cc1 (stereo not drawn)
Second: COc1ccc(NC(=S)/N=C(\N)Nc2nc(C)c3ccc(C)cc3n2)cc1
The “hERG current change (%, negative = inhibition) at 1uM” value of the first is higher: 9.64% for the first, 2.25% for the second.

Going from `C/C=C1/CC(C)C(C)(O)C(=O)OCC2CCN3CCC(OC1=O)C23` (stereo not drawn) to `CC(C)c1cc(C(=O)NC2CCCCC2)no1`, the “hERG current change (%, negative = inhibition) at 1uM” value falls from 15.5% to 2.37%.

Compared with `Cn1c(=O)c2c(O)cc(=O)[nH]c2n(-c2ccccc2)c1=O`, `O=C1CC(c2ccccc2)NC(=O)N1` (stereo not drawn) is lower in “hERG current change (%, negative = inhibition) at 1uM” value: 14.6% for the first, -4.53% for the second.

First: COC(=O)NCCOc1cc(C)ccc1C
Second: COc1ccc(NS(=O)(=O)c2c(C)cc(C)cc2C)cc1
The “hERG current change (%, negative = inhibition) at 1uM” value of the first is lower: -1.4% for the first, 8.76% for the second.

Compared with `COc1ccc(-c2nnc(-c3cc(OC)c(OC)c(OC)c3)o2)cc1OC`, `COc1cc(NC(=O)CCNC(=O)Cn2cnc3sc4c(c3c2=O)CCCC4)cc(OC)c1OC` is higher in “hERG current change (%, negative = inhibition) at 1uM” value: 6.64% for the first, 11.9% for the second.

Going from `Cc1ccc(CNc2ncccc2-c2nc3cc(Cl)ccc3o2)cc1` to `Cc1nnc(SCC(=O)N2CCCC(N3CCN(c4ccc(F)cc4)CC3)C2)o1` (stereo not drawn), the “hERG current change (%, negative = inhibition) at 1uM” value falls from 11.6% to 8.65%.

Compared with `O=C(O)COc1ccccc1`, `CC(=O)N1CCN(CC(=O)Nc2cc(S(=O)(=O)N3CCOCC3)ccc2C)CC1` is lower in “hERG current change (%, negative = inhibition) at 1uM” value: 14.1% for the first, 4.27% for the second.

For `CCOC(=O)c1sc(N)c(C#N)c1COC(=O)C1=COCCO1`, the “hERG current change (%, negative = inhibition) at 1uM” value was 13.3%.
